The target of assay [1] is cyclin B1 (293T cells) (human (endogenous in 293T)), P14635. Kind of assay: co-IP. The conditions noted are these: remark: other sources report otherwise.
The target of assay [2] is T1, Flag-tagged pUL97 (full-length) (human cytomegalovirus (HCMV)), P16788.
T1 chain: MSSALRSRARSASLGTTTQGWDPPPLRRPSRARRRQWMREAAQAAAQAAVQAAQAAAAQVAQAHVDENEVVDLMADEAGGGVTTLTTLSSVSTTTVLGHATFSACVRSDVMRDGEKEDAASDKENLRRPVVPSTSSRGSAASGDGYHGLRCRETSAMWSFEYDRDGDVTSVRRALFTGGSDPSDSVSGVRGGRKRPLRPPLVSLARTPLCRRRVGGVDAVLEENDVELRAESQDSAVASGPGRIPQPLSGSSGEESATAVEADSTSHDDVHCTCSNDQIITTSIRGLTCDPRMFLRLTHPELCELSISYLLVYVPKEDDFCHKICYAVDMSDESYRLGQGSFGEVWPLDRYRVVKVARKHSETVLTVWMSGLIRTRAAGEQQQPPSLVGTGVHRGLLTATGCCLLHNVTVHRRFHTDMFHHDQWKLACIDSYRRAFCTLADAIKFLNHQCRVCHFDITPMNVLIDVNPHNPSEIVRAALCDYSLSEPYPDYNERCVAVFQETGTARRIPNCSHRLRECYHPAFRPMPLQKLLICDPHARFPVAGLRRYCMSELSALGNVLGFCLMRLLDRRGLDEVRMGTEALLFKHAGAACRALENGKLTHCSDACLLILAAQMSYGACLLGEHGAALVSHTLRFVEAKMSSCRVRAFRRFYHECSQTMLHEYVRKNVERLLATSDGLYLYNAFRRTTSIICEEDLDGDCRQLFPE
Kind of assay: co-IP. The conditions noted are these: remark: other sources report otherwise.

Results are given in words; binding and its absence hold for the method and conditions named. In cells and extracts the contact can be indirect. Some entries that bind do so weakly or less than the wild type. Where a sequence is shown, tags or fusion partners need not be part of it.

B1: Flag-tagged pUL97 (full-length), P16788 1-707 (enzyme)
chain: MSSALRSRARSASLGTTTQGWDPPPLRRPSRARRRQWMREAAQAAAQAAVQAAQAAAAQVAQAHVDENEVVDLMADEAGGGVTTLTTLSSVSTTTVLGHATFSACVRSDVMRDGEKEDAASDKENLRRPVVPSTSSRGSAASGDGYHGLRCRETSAMWSFEYDRDGDVTSVRRALFTGGSDPSDSVSGVRGGRKRPLRPPLVSLARTPLCRRRVGGVDAVLEENDVELRAESQDSAVASGPGRIPQPLSGSSGEESATAVEADSTSHDDVHCTCSNDQIITTSIRGLTCDPRMFLRLTHPELCELSISYLLVYVPKEDDFCHKICYAVDMSDESYRLGQGSFGEVWPLDRYRVVKVARKHSETVLTVWMSGLIRTRAAGEQQQPPSLVGTGVHRGLLTATGCCLLHNVTVHRRFHTDMFHHDQWKLACIDSYRRAFCTLADAIKFLNHQCRVCHFDITPMNVLIDVNPHNPSEIVRAALCDYSLSEPYPDYNERCVAVFQETGTARRIPNCSHRLRECYHPAFRPMPLQKLLICDPHARFPVAGLRRYCMSELSALGNVLGFCLMRLLDRRGLDEVRMGTEALLFKHAGAACRALENGKLTHCSDACLLILAAQMSYGACLLGEHGAALVSHTLRFVEAKMSSCRVRAFRRFYHECSQTMLHEYVRKNVERLLATSDGLYLYNAFRRTTSIICEEDLDGDCRQLFPE
Consider B1, for which, in assay [1], the binding entry is “binds”.

B2: cyclin H (293T cells), P51946 1-323 (protein)
chain: MYHNSSQKRHWTFSSEEQLARLRADANRKFRCKAVANGKVLPNDPVFLEPHEEMTLCKYYEKRLLEFCSVFKPAMPRSVVGTACMYFKRFYLNNSVMEYHPRIIMLTCAFLACKVDEFNVSSPQFVGNLRESPLGQEKALEQILEYELLLIQQLNFHLIVHNPYRPFEGFLIDLKTRYPILENPEILRKTADDFLNRIALTDAYLLYTPSQIALTAILSSASRAGITMESYLSESLMLKENRTCLSQLLDIMKSMRNLVKKYEPPRSEEVAVLKQKLERCHSAELALNVITKKRKGYEDDDYVSKKSKHEEEEWTDDDLVESL
As for B2, the binding entry in assay [2] is “no binding”.

For the origin of these results see publication PMC3967168.
